Results from PubChem BioAssay AID1030 (National Center for Advancing Translational Sciences (NCATS), 2008).
In all, about 220,000 compounds went through this assay and about 16,000 (7.3%) were called active. The inconclusive results got no clear call from the source; some entries with a clear call stand among them for comparison. Calls come from the whole dose curve; as a rule, active = well fitted inhibition curve with a large enough effect (not every such curve was filed as active); inconclusive = small, poorly fitted or top-dose-only effect, or another doubt; inactive = no such curve, though single readings can be large or run the other way. Potencies of inconclusive entries are left out as doubtful fits.

Each compound was assayed against Aldehyde dehydrogenase 1A1 (Homo sapiens) (UniProt P00352) (assay: qHTS Assay for Inhibitors of Aldehyde Dehydrogenase 1 (ALDH1A1)). Conditions: Purified ALDH1A1, NADH fluorescence, propionaldehyde substrate; series mostly up to 75.3 µM.
Potency is the fitted concentration of half-maximal effect; tags give direction and shape of the fitted curve.

Chain of UniProt P00352 (P00352 whole entry, looked up): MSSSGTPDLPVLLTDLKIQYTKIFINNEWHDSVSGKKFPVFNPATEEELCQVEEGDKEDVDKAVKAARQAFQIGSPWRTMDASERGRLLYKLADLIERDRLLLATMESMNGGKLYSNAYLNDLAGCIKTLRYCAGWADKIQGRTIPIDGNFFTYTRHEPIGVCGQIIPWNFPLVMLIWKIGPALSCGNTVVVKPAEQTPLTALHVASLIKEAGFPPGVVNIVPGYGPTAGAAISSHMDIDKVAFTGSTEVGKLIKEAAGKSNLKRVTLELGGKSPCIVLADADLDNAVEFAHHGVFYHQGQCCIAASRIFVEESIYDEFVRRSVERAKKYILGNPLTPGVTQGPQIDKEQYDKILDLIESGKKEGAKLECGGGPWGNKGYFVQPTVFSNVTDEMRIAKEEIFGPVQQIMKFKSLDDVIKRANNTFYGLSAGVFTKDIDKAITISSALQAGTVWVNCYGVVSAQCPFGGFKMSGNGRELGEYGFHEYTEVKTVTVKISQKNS

Row | Compound | Potency
1 | Cc1c(/C(O)=C2/C(=O)C(=O)N(Cc3cccnc3)C2c2ccccn2)cnn1-c1ccccc1 (centres undefined) | inconclusive [inhibitor, single point]
2 | O=Cc1ccccc1OCCOc1ccccc1C=O | active: 20 µM
3 | COc1ccc2nc(SCc3ccccc3C)nc(C)c2c1 | inconclusive [inhibitor, partial curve]
4 | COCCn1c(=O)c(-c2ccc(Cl)cc2)nc2cnc(OCc3ccccc3)nc21 | inconclusive [inhibitor, partial curve]
5 | Cc1cc(C)c(C(=O)COC(=O)c2ccc([N+](=O)[O-])o2)cc1C | active: 2 µM
6 | COC(=O)c1c(NC(=O)c2cccc([N+](=O)[O-])c2)sc(C(N)=O)c1C | active: 7.94 µM
7 | CC(C)(C)c1ccc(/C=N/NC(=S)Nc2cccnc2)cc1 | inactive
8 | O=C(Nc1ccc(N2CCN(C(=O)c3ccco3)CC2)c(Cl)c1)c1c(F)c(F)c(F)c(F)c1F | inactive
9 | CC(C)c1ccccc1NC(=O)c1ccccc1NC(=O)C1CCCCC1 | inconclusive [inhibitor, single point]
10 | O=C(NCc1ccccc1)c1c[nH]c2ccc(S(=O)(=O)Nc3ccc4c(c3)OCCO4)cc2c1=O | inconclusive [inhibitor, single point]
11 | COc1cccc(OC)c1C(=O)NNC(=O)c1cccc(COc2ccc3c(c2)CCC3)c1 | active: 20 µM
12 | Cc1ccc(NC(=O)c2nc3nccc(C)n3n2)c(C)c1 | inconclusive [inhibitor, single point]
13 | CCC(=O)N1N=C(c2ccc(NS(C)(=O)=O)cc2)CC1c1ccc(N(C)C)cc1 (centres undefined) | inactive
14 | Cc1ccc(SCc2[nH]nc3c2C(C(C)C)C(C#N)=C(N)O3)cc1 (centres undefined) | inactive
15 | FC(F)Oc1ccc(/C=N/c2c(-c3ccc(OC(F)F)cc3)nc3n2CCS3)cc1 | active: 3.55 µM
16 | COc1ccc(-c2ccc(/C=C3\C(=O)N(c4ccccc4)N=C3c3ccccc3)o2)c([N+](=O)[O-])c1 | inactive
17 | COc1ccccc1C(=O)Nc1cc2cc(Cl)ccc2oc1=O | inconclusive [inhibitor, full curve]
18 | CC1(C)Cc2c(sc3c2c(=N)n(Cc2ccco2)c(=O)n3Cc2ccc(F)cc2)CO1 | inconclusive [inhibitor, single point]
19 | N#CC1=C(SCC(=O)NC2CC2)NC(=O)C(C#N)C12CCCCC2 (centres undefined) | active: 12.6 µM
20 | Cc1ccc(-n2c(SCC3CCCCO3)nnc2-c2ccco2)cc1 (centres undefined) | inconclusive [inhibitor, partial curve]
21 | CC(c1nnc(SCC(=O)Nc2sccc2C#N)n1-c1ccc(Cl)cc1)N(C)C (centres undefined) | inconclusive [inhibitor, single point]
22 | Fc1ccccc1Cn1nnc2c(NCc3ccccn3)ncnc21 | inconclusive [inhibitor, single point]
23 | CCN1CCN(c2cc(C)c3cc(NC(=S)N4CCN(c5ccccc5)CC4)ccc3n2)CC1 | inconclusive [inhibitor, partial curve]
24 | NS(=O)(=O)c1ccc(NC(=S)NC(=O)c2ccc(-c3ccccc3)cc2)cc1 | active: 2 µM
25 | CCNc1nc(NCC)n2c(SCC(=O)Nc3ccc(C(F)(F)F)cc3[N+](=O)[O-])nnc2n1 | inactive

Row | Compound | Potency
26 | COc1ccc(S(=O)(=O)n2nc(OC(=O)c3ccco3)cc2N)cc1 | inconclusive [inhibitor, full curve]
27 | Ic1ccc2c(c1)N(c1ccccc1)c1cc(Nc3ccc4nc5ccc(I)cc5[n+](-c5ccccc5)c4c3)ccc1N2 | inconclusive [inhibitor, single point]
28 | O=C(O)c1nc(-c2ccccc2)n(-c2cccc(C(F)(F)F)c2)n1 | inactive
29 | O=C(O)COc1ccc(/C=C/c2ccc3cccc([N+](=O)[O-])c3n2)cc1 | inconclusive [inhibitor, partial curve]
30 | COc1cccc(Cn2c(=O)cnc3cnc(Nc4cccc(OC)c4)nc32)c1 | inactive
31 | Cc1ccc(C(=O)N/C(=C/c2cccs2)C(=O)NCCCn2ccnc2)cc1 | inactive
32 | CCCn1c(NC(=O)c2cccc(C)c2C)nc2ccccc21 | inactive
33 | COc1ccc(-c2c3c(=O)n(C)c(=O)n(C)c3cn2-c2cc(OC)ccc2OC)cc1 | inconclusive [inhibitor, partial curve]
34 | CC1(C)CC(=O)c2cnc(NC(=O)c3ccco3)nc2C1 | inconclusive [inhibitor, single point]
35 | CC1CC(C)(C)NC(=S)N1CCCC(=O)N1CCN(c2ccc(F)cc2)CC1 (centres undefined) | inactive
36 | Cc1ccc(-c2cc(-c3ccc(F)cc3)c(C#N)c(N)n2)o1 | inconclusive [inhibitor, partial curve]
37 | COC(=O)c1[nH]c(=O)c2ccccc2c1O | inconclusive [inhibitor, single point]
38 | Cc1ccc(CN2CCN(/N=C/c3ccc(C(=O)O)cc3)CC2)c(C)c1 | inconclusive [inhibitor, single point]
39 | CC(C)CC(=O)N1CCN(S(=O)(=O)c2ccc(Cl)cc2)CC1 | inactive
40 | CC(C)(C)NC(=O)NC(=O)CSc1ncccn1 | inactive
41 | CCOc1ccc(CNCc2cccnc2)cc1 | inconclusive [inhibitor, single point]
42 | CCCc1ccc(OC(=O)c2ccc(O)cc2Cl)cc1 | inactive
43 | COc1ccc(OC)c(/C=N/Nc2nncn2/N=C/c2cc(OC)ccc2OC)c1 | inconclusive [inhibitor, single point]
44 | Cc1ccnc(N2CCCC(C(=O)Nc3cc(F)ccc3C)C2)n1 (centres undefined) | inconclusive [inhibitor, single point]
45 | COc1ccc(CC(=O)NCc2n[nH]c(=S)n2-c2cccc(C)c2)cc1 | inactive
46 | Cc1cccc2sc(N)nc12 | inconclusive [inhibitor, single point]
47 | O=C(NCCN1CCOCC1)c1ccc2c(c1)ncn2C1CCCC1 | inconclusive [inhibitor, single point]
48 | COCC(=O)N1CCC[C@@]2(CCN(C(=O)Nc3cccc(C#N)c3)C2)C1 | inactive
49 | O=C(CNC(=O)c1cccc(OC(F)F)c1)OCc1cc(=O)n2cc(Br)ccc2n1 | inconclusive [inhibitor, single point]
50 | [O-]/C(=C(\C(=S)NCc1ccccc1)[n+]1ccccc1)c1ccc(Cl)s1 | active: 17.8 µM

Row | Compound | Potency
51 | CSc1nc(Oc2ccc(=O)n(C)n2)nc(N(C)C)n1 | inactive
52 | CCCOC(=O)c1ccc(NC(=O)C(CC)CC)cc1 | inconclusive [inhibitor, single point]
53 | O=C(O)CC(NC(=O)Cc1ccc(Cl)cc1)c1ccco1 (centres undefined) | inactive
54 | COC(=O)c1cc2c(cc1N)OCCO2 | inconclusive [inhibitor, single point]
55 | O=C(COC(=O)c1nc(Cl)ccc1Cl)c1ccc(Cl)s1 | inconclusive [inhibitor, single point]
56 | CCOC(=O)c1c(NC(=O)c2cccs2)sc2c1CCN(C(=O)OCC)C2 | inconclusive [inhibitor, partial curve]
57 | O=C(C(Cc1ccccc1)n1cccc1)N1CCN(Cc2ccccc2)CC1 (centres undefined) | inconclusive [inhibitor, single point]
58 | Cc1cccc(N2CCN(C(=O)C3COc4ccccc4O3)CC2)c1C (centres undefined) | inconclusive [inhibitor, single point]
59 | CCn1cc(C(=O)NC2CCC(C)CC2)c(=O)c2cc(S(=O)(=O)N3CCCCC3)ccc21 (centres undefined) | inconclusive [inhibitor, partial curve]
60 | O=C(COC(=O)C12CC3CC(CC(O)(C3)C1)C2)NC12CC3CC(CC(C3)C1)C2 | inconclusive [inhibitor, single point]
61 | Nc1nc(Nc2ccccc2)nc2c1ncn2[C@@H]1O[C@H](CO)[C@H](O)[C@H]1O | inactive
62 | Cc1ccccc1C(=O)NC1CCN(CC(=O)Nc2nccs2)CC1 | inactive
63 | CCOC(=O)CSc1ncnc2c(C(=O)OCC)c3n(c12)CCC3 | inactive
64 | Cc1ccc(S(=O)(=O)NC(C)(C)CSc2nnc(N)s2)cc1 | inconclusive [inhibitor, partial curve]
65 | O=C(Nc1nccs1)c1cnccn1 | inactive
66 | O=C(OCc1nnc(-c2ccccc2)o1)c1cc(F)c(F)cc1Cl | inactive
67 | COc1cccc(-c2nn3c(-c4cc(C)[nH]n4)nnc3s2)c1 | inactive
68 | CC(CCc1ccco1)NC(=O)Cn1ncc2c(=O)oc3ccccc3c21 (centres undefined) | inconclusive [inhibitor, single point]
69 | Cc1ccc(NC(=O)CN2CCC(C(N)=O)CC2)cc1[N+](=O)[O-] | inactive
70 | CN1C(=O)/C(=C2\SC(=S)N(C(CCC(=O)O)C(=O)O)C2=O)c2ccccc21 (centres undefined) | active: 1.12 µM
71 | O=C(O)c1cccc(S(=O)(=O)N2CCN(C(c3ccccc3)c3ccccc3)CC2)c1 | inconclusive [inhibitor, single point]
72 | COc1ccc(NC(=O)c2c(NC(=O)CCC(=O)O)sc(-c3ccccc3)c2C)cc1 | active: 8.91 µM
73 | COCCNCCCOc1ccc(C)cc1Br | inconclusive [inhibitor, single point]
74 | COc1ccc(/C=C/C(=O)NC2CCCCCC2)cc1S(=O)(=O)N1CCOCC1 | inconclusive [inhibitor, partial curve]
